# Laboratory results as given in PMC6602471.
# The list shows a part of the results. At the low end of the ranking the order means little.
# Biological target: T1, ELK1 (UniProt P19419)
# T1 sequence: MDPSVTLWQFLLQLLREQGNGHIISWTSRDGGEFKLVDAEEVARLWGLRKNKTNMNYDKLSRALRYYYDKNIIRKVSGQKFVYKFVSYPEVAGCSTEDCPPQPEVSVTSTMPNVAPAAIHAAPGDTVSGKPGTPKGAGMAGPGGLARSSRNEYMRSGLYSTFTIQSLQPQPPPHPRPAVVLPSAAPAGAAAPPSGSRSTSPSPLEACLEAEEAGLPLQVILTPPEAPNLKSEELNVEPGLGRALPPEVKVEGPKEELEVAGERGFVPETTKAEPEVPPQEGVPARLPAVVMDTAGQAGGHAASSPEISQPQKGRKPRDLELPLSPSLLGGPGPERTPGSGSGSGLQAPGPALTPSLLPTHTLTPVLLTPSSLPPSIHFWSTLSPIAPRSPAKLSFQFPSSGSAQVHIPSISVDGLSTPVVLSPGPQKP
# Test: custom PBM
# Settings: custom protein-binding microarray; buffer, salt, pH and temperature not stated; high values mean tight binding; double strand, one strand shown
row,Sequence,binding signal (log fluorescence intensity)
1,GTATATAGGATCCCATCCAACACACGTGTTAAAATGGTCTTGATTCGCTTGACGCTGCTG,8.75
2,GATTAATTTGTGCCCTTATTCGCACGTGCCATAACAGTCTTGATTCGCTTGACGCTGCTG,8.61
3,CTGGGAGTTGACCCAACTCTGCCACGTGGGTCGTTTGTCTTGATTCGCTTGACGCTGCTG,8.86
4,TCCGGCTACCAGCTCCACCCACTTCAGGGCTTGTAGGTCTTGATTCGCTTGACGCTGCTG,8.92
5,GTGTATAGGATCCCATCCAACACACGTGTTAAAATGGTCTTGATTCGCTTGACGCTGCTG,8.85
6,GGAAAAAGGCCCAGCGTAACACCGGAAGTGGGCTTAGTCTTGATTCGCTTGACGCTGCTG,10.8
7,CACAATTTTTACAGTAATGTAGCACGCGTTACTCCTGTCTTGATTCGCTTGACGCTGCTG,9.11
8,GGAAAAAGGCCCAGGGTAACACCGGAAGTGGGCATAGTCTTGATTCGCTTGACGCTGCTG,10.9
9,CTGGGACTAGACCCAACTCTGCCACGTGGGTCGTTTGTCTTGATTCGCTTGACGCTGCTG,8.74
10,GTGTATAGGATCCCATCCAACACACGTGTTACAATGGTCTTGATTCGCTTGACGCTGCTG,9.02
11,GGAGAAAGGCCCAGGGTAACACCGGAAGTGGGCTTAGTCTTGATTCGCTTGACGCTGCTG,10.9
12,GCTGCTGCGGTGCATACCCCATCGGATGTGACCCCGGTCTTGATTCGCTTGACGCTGCTG,9.05
13,TACTGACTTATTTATGCGAATGCACATGAATAGACCGTCTTGATTCGCTTGACGCTGCTG,8.87
14,CAGCATAGGACTTCTTCCCTGAAGCAATTGATCACCGTCTTGATTCGCTTGACGCTGCTG,8.95
15,CTGGGACTTGACCCAACTCTGCCACGTGGGTCGTATGTCTTGATTCGCTTGACGCTGCTG,8.98
16,TGTCGGGTAAGGGAATGTAGATCACGTGAATGTAAAGTCTTGATTCGCTTGACGCTGCTG,8.95
17,TGTAGGGTAAGGGAATGTAGATCACGTGAATGAAAAGTCTTGATTCGCTTGACGCTGCTG,8.82
18,GTGTATAGGATCCCATCCAACACACATGTTAAAATGGTCTTGATTCGCTTGACGCTGCTG,8.76
19,GATTAATTTCTGCCCGTATTCGCACGTGCCATAACAGTCTTGATTCGCTTGACGCTGCTG,9.07
20,GGAAAAAGGCCCAGGGTAACACCGGAAGTGGGCTCAGTCTTGATTCGCTTGACGCTGCTG,10.9
21,GATTAATTCCTGCCCTTATTCGCACGTGCCATAACAGTCTTGATTCGCTTGACGCTGCTG,11.1
22,TAAAGGGAAGACGGTTCTGGTAGTTCCGGGTATTAAGTCTTGATTCGCTTGACGCTGCTG,11.3
23,CAGCATAGGACTTCTTCCCTGAAGCAATTGATAACTGTCTTGATTCGCTTGACGCTGCTG,8.96
24,TACTGACTTATATATGCGAATGCGCATGAATAGACCGTCTTGATTCGCTTGACGCTGCTG,8.86
25,TCCTGCTACCAGCTCCACCCACTTCAGGCCTTGTAGGTCTTGATTCGCTTGACGCTGCTG,8.89
26,TAAAGGGAAGACGGCTGTGGTAGTTCCGGGTATTAAGTCTTGATTCGCTTGACGCTGCTG,11.2
27,GCTGCTGCGGTGCATACCCAACCGGATGTGACCCCGGTCTTGATTCGCTTGACGCTGCTG,10.4
28,TCCGGCTACCAGCTCCAGCCACTTCAGGCCTTGTAGGTCTTGATTCGCTTGACGCTGCTG,8.75
29,GTGTATAGGATCCCATCCAACACACCTGTTAAAATGGTCTTGATTCGCTTGACGCTGCTG,8.91
30,TACTGACTTATATATGCGGATGCACATGAATAGACCGTCTTGATTCGCTTGACGCTGCTG,9.12
